Results taken from PubChem BioAssay AID2101 (National Center for Advancing Translational Sciences (NCATS), 2009).
Where “and” joins values, the source holds several entries; their conditions need not be identical. Identical values can stand only once. The whole screen tested about 330,000 compounds, of which about 300 (0.091%) were called active. The inconclusive results got no clear call from the source; some entries with a clear call stand among them for comparison. Calls follow the shape of the dose curve; as a rule, active = well fitted inhibition curve with a large enough effect; inconclusive = small, poorly fitted or top-dose-only effect, or effect the other way, or another doubt; inactive = no such curve, though single readings can be large or run the other way. Potencies of inconclusive entries are left out as doubtful fits. More than one record can exist for a structure, and the calls need not agree.

The compounds below were run against Lysosomal acid glucosylceramidase (Homo sapiens) (UniProt P04062) (assay: qHTS Assay for Inhibitors and Activators of N370S glucocerebrosidase as a Potential Chaperone Treatment of Gaucher Disease). Settings: N370S GC spleen homogenate, 4MU-glucoside fluorescence; activity change, negative = inhibition: at 59.4 µM (top of the series) unless noted.
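For activity change, negative = inhibition in this document: 0% = full enzyme activity and -100% = no enzyme basal.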
Potency is read from the fitted curve at half-maximal effect.

Row | Structure (SMILES) | activity change, negative = inhibition | Potency
1 | C#CCOCOCC#CCN(CC)CC | inconclusive: 31.1% [activator] | 
2 | CCC1=Nc2cc(C(=O)N3CCC4(CC3)OCCO4)ccc2Sc2ccc(Br)cc21 |  | inconclusive [inhibitor, full curve, poor fit]
3 | Cc1ccc2nc3sc(=O)sc3nc2c1 |  | inactive
4 | COc1ccc2c(c1)c(CCN1CCOCC1)c(C)n2C(=O)c1cccc(Cl)c1Cl |  | active: 12.6 µM
5 | CCCCCCN=C(CC)c1c(O)n(CCCC)c(=O)[nH]c1=O |  | inconclusive [activator, partial curve]
6 | CC(C)=CCc1c(O)cc2c(c1O)C(=O)CC(c1ccc(O)cc1)O2 (configuration not stated) |  | inconclusive [inhibitor, partial curve]
7 | CCCCCOC(=O)c1ccccc1C(=O)OCCCCC |  | inactive
8 | O=[N+]([O-])c1ccc2nc(N3CCNCC3)ccc2c1 |  | inconclusive [inhibitor, single point]
9 | C[C@]12CC[C@H]3[C@@H](CCC4=CC(=O)CC[C@@H]43)[C@@H]1CC[C@@H]2O |  | inconclusive [activator, partial curve]
10 | COc1cc2c3cc1Oc1c(OC)c(OC)cc4c1[C@@H](Cc1ccc(OC(=O)c5ccc([N+](=O)[O-])cc5)c(c1)Oc1ccc(cc1)C[C@@H]3N(C)CC2)N(C)CC4 |  | inconclusive [inhibitor, partial curve]
11 | COCCCn1c(N)c(C(=O)Nc2ccccc2)c2nc3ccccc3nc21 |  | inconclusive [activator, single point]
12 | C[N+]1=Cc2cc3c(cc2CC1)OCO3 |  | inconclusive [activator, single point]
13 | Cc1ccc(-n2nc(C)cc2NC(=O)COc2cc(C)cc3oc(=O)c4c(c23)CCC4)cc1 |  | inconclusive [activator, partial curve]
14 | Nc1c(C(=O)OC2CCCCC2)c2nc3ccccc3nc2n1CC1CCCO1 (configuration not stated) |  | inconclusive [activator, partial curve]
15 | CC(C)COP(=O)(c1ccc(N(C)C)cc1)C(Nc1ccccc1)c1ccccc1 (configuration not stated) |  | inconclusive [activator, partial curve]
16 | Nc1c(C(=O)NCCc2ccccc2)c2nc3ccccc3nc2n1CCN1CCOCC1 |  | inconclusive [inhibitor, partial curve]
17 | CCC(=NC1CC1)c1c(O)n(C2CCCCC2)c(=O)[nH]c1=O |  | inconclusive [activator, partial curve]
18 | CC(C)c1ccc(N2C(=O)NC(=O)/C(=C/c3cnc(-c4ccccc4)nc3)C2=O)cc1 |  | inactive
19 | c1ccc2cc3c(cc2c1)-c1cccc2cccc-3c12 | inconclusive: 29.2% [activator] | 
20 | CCCCn1c(O)c(C(CC)=NCCc2ccccc2)c(=O)[nH]c1=O |  | inconclusive [activator, partial curve]
21 | Cc1cccc(NP(=O)(Oc2ccccc2F)Oc2ccccc2F)c1 |  | inconclusive [activator, partial curve]
22 | CCCCn1c(N)c(C(=O)OCCOC)c2nc3ccccc3nc21 |  | inconclusive [activator, single point]
23 | CN(C)c1ccc(N(C)C)cc1 |  | inactive

Row | Structure (SMILES) | activity change, negative = inhibition | Potency
24 | O=[N+]([O-])/C=C/c1ccccc1 |  | inactive
25 | COc1cccc(NP(=O)(Oc2ccccc2)Oc2ccccc2)c1 |  | inconclusive [activator, partial curve]
26 | CC(=NCCN1CCOCC1)c1c(O)n(Cc2ccccc2)c(=O)[nH]c1=O |  | inactive
27 | COC(=O)C1C2c3ccccc3OC1(C)N=c1s/c(=C/c3cnn(C)c3)c(=O)n12 (configuration not stated) |  | inactive
28 | CC/C(=C(\c1ccccc1)c1ccc(OCCN(C)C)cc1)c1ccc(O)cc1 |  | inconclusive [inhibitor, partial curve, poor fit]
29 | O=c1[nH]c(=S)[nH]c(O)c1N=Nc1ccc(SC(F)F)cc1 |  | inactive
30 | O=C(Cc1ccccc1)NC(Oc1ccccc1Cl)C(Cl)(Cl)Cl (configuration not stated) |  | inactive
31 | CCOC(=O)C(C)Oc1cc(C)cc2oc(=O)c3c(c12)CCCC3 (configuration not stated) |  | inconclusive [activator, single point]
32 | Cc1ccc(N2C(=O)NC(=O)/C(=C/C=C/c3ccco3)C2=O)cc1 |  | inactive
33 | CCOP(=O)(OCC)c1nc(-c2cccc3ccccc23)oc1NCCc1ccc(OC)cc1 |  | inconclusive [activator, single point]
34 | C#CCOCCOCCOCCNc1nc(N2CCN(C(=O)CCCCCCCCCCNC(=O)[C@H]([C@@H](C)CC)n3cc(CCCCN=C(N)N)nn3)CC2)nc(N2CCN(C(=O)CCCCCCCCCCNC(=O)[C@H](CO)n3cc(CCCCCN)nn3)CC2)n1 |  | inconclusive [inhibitor, partial curve]
35 | Cc1c(C=C2C(=O)NC(=O)NC2=O)c(=O)n(-c2ccccc2)n1C |  | inactive
36 | NC(N)=N/N=C/c1c(Cl)cccc1Cl |  | inconclusive [inhibitor, single point]
37 | Cc1c(F)c(F)c(COC(=O)C2C(/C=C(\Cl)C(F)(F)F)C2(C)C)c(F)c1F (configuration not stated) |  | inactive
38 | O=C1C(=O)c2ccccc2-c2ccccc21 |  | inactive
39 | NC(N)=N/N=C/c1ccc(N(c2ccccc2)c2ccccc2)cc1 |  | inconclusive [activator, single point]
40 | Cc1ccc(S(=O)(=O)Oc2ccccc2C=C2C(=O)N(C)C(=O)N(C)C2=O)cc1 |  | inactive
41 | CNCC[C@H](Oc1ccc(C(F)(F)F)cc1)c1ccccc1 |  | inactive and active: 8.91 µM
42 | O=C(c1cc2nc(-c3ccccc3)cc(-c3ccccc3)n2n1)N1CCC2(CC1)OCCO2 |  | inconclusive [activator, single point]
43 | O=C(C1CC(c2ccc(Cl)c(Cl)c2)=NO1)N1CCC2(CC1)OCCO2 (configuration not stated) |  | inactive
44 | COc1cc(/C=C2\C(=O)NC(=O)N(c3ccc(C)cc3)C2=O)cc(OC)c1O |  | inactive
45 | N#CC(C(=O)C12CC3CC(CC(C3)C1)C2)c1nc2ccccc2[nH]1 (configuration not stated) |  | inconclusive [activator, partial curve]
46 | CC(=NCCC1=CCCCC1)c1c(O)[nH]c(=O)[nH]c1=O |  | inactive

Row | Structure (SMILES) | activity change, negative = inhibition | Potency
47 | Nc1c(C(=O)NCc2ccco2)c2nc3ccccc3nc2n1Cc1ccc(F)cc1 |  | inconclusive [activator, partial curve]
48 | CCCCn1c(N)c(C(=O)NCc2cccs2)c2nc3ccccc3nc21 |  | inconclusive [activator, full curve]
49 | O=c1c2ccccc2nc(Cc2ccccc2)n1-c1cccc(O)c1 |  | inconclusive [activator, partial curve]
50 | COCCOC(=O)c1c(N)n(Cc2ccc(OC)cc2)c2nc3ccccc3nc12 |  | inconclusive [activator, partial curve]
51 | Cc1oc(-c2ccccc2Cl)nc1CN1C(=O)CN=C(c2ccccc2)c2ccccc21 |  | inconclusive [activator, single point]
52 | Cc1ccc(OP(=O)(Oc2ccc(C)cc2)Oc2ccc(C)cc2)cc1 |  | inactive
53 | NC(=NCCc1ccc(I)cc1)SCCCc1cnc[nH]1 |  | inconclusive [inhibitor, partial curve]
54 | CCCCn1c(NC(=O)c2ccc(Br)o2)c(C(=O)OCC)c2nc3ccccc3nc21 |  | inconclusive [activator, single point]
55 | N#CC1=C(N)Oc2c(c(=O)sc3ccccc23)C1c1ccncc1 (configuration not stated) |  | inconclusive [inhibitor, partial curve, poor fit]
56 | Cc1ccc(NC(=O)c2cc(-c3ccccc3)n(CCCN3CCOCC3)c2C)cc1 |  | inconclusive [inhibitor, partial curve]
57 | COCCCNC(=O)c1c(N)n(Cc2ccco2)c2nc3ccccc3nc12 |  | inconclusive [activator, partial curve]
58 | COCCNC(=O)c1c(N)n(Cc2ccco2)c2nc3ccccc3nc12 |  | inconclusive [activator, partial curve]
59 | Cc1c(C(=O)Nc2ccccc2)c2cc(O)ccc2n1Cc1ccccc1 |  | inconclusive [activator, single point]
60 | CC(N=Cc1c(O)[nH]c(=O)[nH]c1=O)c1ccccc1 (configuration not stated) | inconclusive: 27.5% [activator] | 
61 | c1ccc(CNc2c3c(nc4ccccc24)CCC3)cc1 |  | inconclusive [inhibitor, partial curve, poor fit]
62 | O=C(Nc1cccc(C(=O)Nc2cc(C(=O)Nc3ccc([S+](=O)([O-])[O-])c4cc([S+](=O)([O-])[O-])cc(SOOO)c34)ccc2F)c1)Nc1cccc(C(=O)Nc2cc(C(=O)Nc3ccc([S+](=O)([O-])[O-])c4cc([S+](=O)([O-])[O-])cc([S+](=O)([O-])[O-])c34)ccc2F)c1 |  | inactive
63 | COc1ccc(N2C(=O)NC(=O)/C(=C/c3cccc(OC(=O)c4cccs4)c3)C2=O)cc1Cl |  | inactive
64 | C=CC(N)=O |  | inactive
65 | Cc1cccn2c(=O)c3c(nc12)N1CCc2ccccc2C1C1(C3)C(=O)NC(=O)N(C)C1=O (configuration not stated) |  | inconclusive [activator, partial curve]
66 | CCOc1cc2c(cc1OCC)-n1cccc1C(c1ccccc1O)NC2 (configuration not stated) |  | inconclusive [inhibitor, partial curve, poor fit]
67 | CN1CCc2c([nH]c3ccccc23)C1 |  | inconclusive [inhibitor, single point]
